# Source: PMC4336329 (PLoS ONE, 2015)
# Screen size: about 310,000 compounds; about 14,000 (4.5%) showed an effect of 50% or more. Effects have a minus sign here. This is one part of the list.
# Molecular target: human ether-à-go-go-related gene (hERG) potassium channel (human, UniProt Q12809)
# Test: primary screen, population patch clamp on CHO cells stably expressing hERG
# 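Also: peak tail current of the secondary pulse compared with the same well before compound.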
# human ether-à-go-go-related gene (hERG) potassium channel, sequence (Q12809 whole entry, looked up): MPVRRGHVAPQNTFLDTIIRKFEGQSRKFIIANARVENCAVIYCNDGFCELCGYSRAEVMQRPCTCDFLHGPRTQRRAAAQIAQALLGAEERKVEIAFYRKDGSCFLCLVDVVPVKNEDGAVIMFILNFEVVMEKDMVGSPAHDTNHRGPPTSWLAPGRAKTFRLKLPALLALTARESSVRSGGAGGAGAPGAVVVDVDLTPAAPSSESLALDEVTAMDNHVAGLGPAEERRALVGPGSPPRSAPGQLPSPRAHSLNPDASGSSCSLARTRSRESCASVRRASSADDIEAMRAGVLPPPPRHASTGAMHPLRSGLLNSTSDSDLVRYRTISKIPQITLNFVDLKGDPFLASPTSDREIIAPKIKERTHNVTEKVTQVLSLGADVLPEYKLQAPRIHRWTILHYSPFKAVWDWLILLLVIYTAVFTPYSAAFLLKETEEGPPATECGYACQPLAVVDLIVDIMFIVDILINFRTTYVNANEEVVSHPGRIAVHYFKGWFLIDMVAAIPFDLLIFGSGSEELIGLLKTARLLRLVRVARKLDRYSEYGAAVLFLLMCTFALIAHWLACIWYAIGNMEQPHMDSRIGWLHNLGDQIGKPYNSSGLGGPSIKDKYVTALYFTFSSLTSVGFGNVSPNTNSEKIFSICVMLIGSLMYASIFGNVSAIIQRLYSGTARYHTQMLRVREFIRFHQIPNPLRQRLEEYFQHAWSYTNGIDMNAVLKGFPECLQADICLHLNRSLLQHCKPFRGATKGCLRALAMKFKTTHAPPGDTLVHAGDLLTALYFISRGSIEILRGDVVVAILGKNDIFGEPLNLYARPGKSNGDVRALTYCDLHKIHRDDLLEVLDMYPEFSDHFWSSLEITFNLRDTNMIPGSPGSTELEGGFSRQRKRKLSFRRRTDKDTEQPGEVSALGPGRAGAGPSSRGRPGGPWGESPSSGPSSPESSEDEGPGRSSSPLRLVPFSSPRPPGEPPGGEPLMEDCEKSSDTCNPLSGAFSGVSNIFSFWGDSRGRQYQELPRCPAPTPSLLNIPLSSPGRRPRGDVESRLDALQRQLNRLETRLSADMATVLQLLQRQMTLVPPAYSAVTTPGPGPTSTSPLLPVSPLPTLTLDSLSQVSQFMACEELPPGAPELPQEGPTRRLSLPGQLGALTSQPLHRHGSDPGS
row,Compound,"hERG current change (%, negative = inhibition) at 10uM [%]"
1,CC(C)=CCc1cc([C@@H]2COc3c(ccc4c3C=CC(C)(C)O4)C2)c(O)cc1O,3.61
2,COc1ccc(CCNC(=O)COC(=O)/C=C/c2cccs2)cc1,8.62
3,CN(CC(=O)Nc1ccc(Cl)c(C(F)(F)F)c1)C(=O)CCNC(=O)c1ccco1,-43.1
4,O=C(c1cc(Cl)ccc1F)N1CCCC(Nc2ccc3c(c2)OCCO3)C1 (stereo not drawn),-4.44
5,Cc1cc(C)cc(NC(=O)[C@H](Cc2c[nH]c3ccccc23)NC(=O)[C@@H]2Cc3ccccc3CN2)c1,-5.98
6,COC(=O)c1ccc(CSc2ncnc3c2nnn3-c2ccc(OC)cc2)o1,-3.25
7,CCc1ccc(NC(=O)N(C2CCC(C)CC2)C2CCN(C(C)=O)CC2)cc1 (stereo not drawn),-30.3
8,CC(C)(C)NC(=O)CSc1nnc(SCC(=O)NC(C)(C)C)s1,38.9
9,Cc1cccc(C)c1NC(=O)CSc1nc(C)c(CC(=O)c2ccc(Br)cc2)c(C)c1C#N,6.53
10,Cc1ccccc1Nc1nc(N)nc(CN2CCN(C(=O)c3ccccc3)CC2)n1,-37.9
11,CC(=O)OCC(OC(C)=O)C(OC(C)=O)C(OC(C)=O)C(=O)Nc1ccccc1 (stereo not drawn),16.6
12,CCOC(=O)C1CCCN(C(=O)c2cn(C)c(=O)c3cc(OC)c(OC)cc23)C1 (stereo not drawn),15.2
13,COc1cc(OC)c(C2N(c3cc(C)on3)C(=O)C3CCCN32)cc1OC (stereo not drawn),5.95
14,Cc1cccc(C)c1NC(=O)Cn1nnc(C(=O)Nc2ccc(F)cc2F)c1N,15.9
15,CC(C)CNC(=O)CN(C)S(=O)(=O)c1ccc(F)cc1,-1.25
16,OC1(c2ccccc2F)CCN(Cc2nnc(-c3ccccc3)o2)CC1,-2.92
17,O=C(Nc1ccccc1F)c1ccc(S(=O)(=O)N2CCCCCC2)cc1,6.11
18,CC(C)(C)N(Cc1ccccc1)C(=O)COC(=O)c1cccc([N+](=O)[O-])c1,-4.66
19,c1ccc(SCc2nc3ccccc3[nH]2)nc1,13.8
20,O=C(NCc1ccccc1)C(c1ccc(F)cc1)N(Cc1ccc2c(c1)OCO2)C(=O)Cn1nnc(-c2cccs2)n1 (stereo not drawn),-1.88
21,O=C(OCc1nc2ccc(Cl)cc2n1CCO)c1ccc2c(c1)OCO2,-7.34
22,O=c1[nH]c(C2C3CC4CC(C3)CC2C4)nc2ccccc12 (stereo not drawn),17.2

row,Compound,"hERG current change (%, negative = inhibition) at 10uM [%]"
1,CC1CN(S(=O)(=O)c2cccc3nsnc23)CC(C)O1 (stereo not drawn),2.56
2,O=C(OCC(=O)N1CCN(c2ccccc2)CC1)c1ccc[n+]([O-])c1,7.34
3,CCN(CC)S(=O)(=O)c1cccc2cccnc12,-1.48
4,CC(=O)/C(N=Nc1cc2c(c([N+](=O)[O-])c1C)C(C)(C)CC2(C)C)=C(\C)O,9.64
5,O=C(CSc1ncccn1)Nc1ccccc1,3.55
6,CSc1nnc(-c2ccc(Br)s2)n1C,1.98
7,CCN1C(=O)N(C)C(N(O)C(=O)NC)C1(C)C (stereo not drawn),-2.48
8,CCOC(=O)c1cc(C)n(Cc2ccccc2)c1C,1.15
9,O=C(N/N=C/C1CC2CCC1C2)C1CC1 (stereo not drawn),30.8
10,Cc1nc(-c2ccccc2)nn1-c1ccc([N+](=O)[O-])cc1,-26.2
11,Cc1noc(C)c1CSCC(=O)Nc1cc(S(=O)(=O)N2CCOCC2)ccc1OC(C)C,-35.2
12,Cc1ccsc1C(=O)OCC(=O)N(C)c1c(N)n(Cc2ccccc2)c(=O)[nH]c1=O,27.7
13,Cc1ccc(C(=O)N/C(=C\c2cccs2)C(=O)N2CCCCCC2)cc1,-50.7
14,COc1ccc(C(=O)NCC(=O)Nc2ccccc2)cc1OC,17.8
15,COc1ccc(OC)c2[nH]c(=O)c(CCNS(=O)(=O)c3ccc(C)cc3)cc12,-27.1
16,CC1(OC(=O)CCc2ccccc2)C(=O)C=C2C=C(c3ccc(C#N)cc3)N(CC3CC3)C=C2C1=O (stereo not drawn),-44.6
17,O=C(O)c1ccc(-c2nnc(-c3cccc(Br)c3)o2)cc1,4.71
18,O=P(N[C@@H](c1ccccc1)[C@@H]1C[C@H]1CO)(c1ccccc1)c1ccccc1,3.95
19,Cc1cccc(C(=O)NCCC(=O)Nc2ccc(C#N)cc2)c1,-0.169
20,O=C(CC1C(=O)NCCN1CC1CCCCC1)NCc1ccc(F)cc1 (stereo not drawn),-20.3
21,Cc1cc(N2CCN(C(=O)/C=C/C(=O)O)CC2)c2ccccc2n1,32.4
22,CCN(CC)S(=O)(=O)c1ccc(N2CCN(S(=O)(=O)c3ccccc3C#N)CC2)nc1,-9.83

row,Compound,"hERG current change (%, negative = inhibition) at 10uM [%]"
1,Oc1cc(Cl)ccc1Oc1ccc(Cl)cc1Cl,1.85
2,CCN(CC)c1ccc(CN2CC=C(c3ccc(F)cc3)CC2)cc1,-78.4
3,CC(=O)NC(CC(=O)Nc1ccc2c(c1)OCCO2)c1ccccc1 (stereo not drawn),3.79
4,Cc1cccn2c(=O)nc(SCC(=O)N3CCCC3)nc12,-22.6
5,COc1ccc(/C=C2\CCC(C3CCCC3)C2=O)cc1Cn1nc(C)cc1C (stereo not drawn),14.8
6,O=C(c1cc2ncccn2n1)N1CCc2c([nH]c3ccccc23)C1c1ccccc1F (stereo not drawn),-5.11
7,CC(=O)Nc1ccc(C(=O)Cn2c3[n+](c4c(F)c(F)ccc42)CCCCC3)cc1.[Br-],5.76
8,O=C(CSCc1ccco1)c1ccc(Cl)s1,10.8
9,COc1cc(-c2c(C#N)c(N)nc(SCc3ccncc3)c2C#N)cc(OC)c1OC,-42.9
10,Cc1cccc(Nc2ncnc3onc(-c4cccc(Cl)c4)c23)c1C,-4.32
11,Cc1ccc2nc(Cl)c(/C=N/NC(=O)CN3CCOCC3)cc2c1,-1.59
12,O=C1C(NS(=O)(=O)c2ccc(Cl)cc2)=C(N2CCCCC2)C(=O)c2ccccc21,-13.3
13,CC1(C)NC(=O)N(CC(=O)OCC(=O)c2ccc(F)cc2)C1=O,-3.53
14,CCOC(=O)c1ccc(NC(=S)N(CCCN2CCCCCC2)Cc2ccco2)cc1,-73.7
15,CCCN(CCO)Cc1ccc2ccccc2c1,-20.8
16,Cc1cc(C(=O)c2cnc(/N=C/N(C)C)s2)c(F)cc1Cl,-41.5
17,CCOc1ccc(CCNC(=O)COC(=O)c2oc3ccccc3c2COC)cc1OCC,-14.4
18,CC1(C)C/C(=N\NC(=S)Nc2ccccc2F)c2cc(O)ccc2O1,-18.8
19,Cc1ccc(C)c(NC(=S)/C(=C(\[O-])c2ccc(Cl)s2)[n+]2ccccc2)c1,-11.4
20,COc1cc(C(=O)COC(=O)c2cc([N+](=O)[O-])ccc2N2CCOCC2)ccc1OC(F)F,-41.2
21,O=c1n(-c2ccccc2)c(=O)n(Cc2ccccn2)n1Cc1ccccn1,3.02
22,COc1ccccc1CC(=O)N1CCN(CCc2ccccc2)CC1,-23.1

row,Compound,"hERG current change (%, negative = inhibition) at 10uM [%]"
1,Cc1ccc(CNc2nc(Cl)c(C#N)s2)cc1,-7.26
2,COc1cc(C2N=C(c3ccccc3)NO2)cc(Br)c1O (stereo not drawn),-5.13
3,CCN(Cc1ccccc1)C(=O)c1cc2c(OC)c(OC)c(OC)cc2[nH]1,-1.92
4,COCCN=c1scc(-c2cc(OC)c(OC)c(OC)c2)n1/N=C/c1c(C)[nH]c2ccccc12,10.2
5,Cc1nc(C(=O)N(C)C)nn1-c1cc(Cl)cc(Cl)c1,-2.06
6,COc1ccc(C(=O)N/C(=C\c2cn(C)c3ccccc23)C(=O)N2CCN(C)CC2)cc1,-7.61
7,Cc1cc(Nc2cccc(C)c2C)n2ncnc2n1,9.53
8,COc1ccc(C(C)=O)cc1CSc1nnc(Nc2ccccc2)s1,0.366
9,Br.CCOC(=O)/C(C)=N/Nc1nc(-c2ccc(NC(C)=O)cc2)cs1,5.91
10,O=C(OCc1nc2ccc(Cl)cc2n1CCO)c1ccccc1,-32.2
11,O=C1C2C3C=CC(CO)(O3)C2C(=O)N1c1ccccc1-c1ccccc1 (stereo not drawn),-0.427
12,O=C(Nc1nnc(C(F)(F)F)s1)c1c(F)cccc1F,18.8
13,O=C(Cc1cccs1)Nc1nc(-c2ccccc2)cs1,-2.34
14,CC(C)(C)NC(=O)NC(=O)CN1CCN(S(=O)(=O)c2ccc3c(c2)CCCC3)CC1,12
15,CCOc1nc(-c2ccccc2)ncc1Oc1ccccc1,17.5
16,CCCn1ccc(O)c(Cc2ccc(Cl)cc2)c1=O,12.9
17,Cc1ccc(CN2CCN(CC(=O)N/N=C/c3ccccc3F)CC2)cc1,-66.4
18,COc1ccc(C2=NOC(Cn3nc(C(=O)NCc4cccc(C(F)(F)F)c4)cc3-c3ccccc3)C2)cc1 (stereo not drawn),6.61
19,CCOC(=O)CC1(NC(=O)C2CCC(=O)N(Cc3ccccc3F)C2)CCCCC1 (stereo not drawn),-11.7
20,O=C(O)c1ccccc1CSc1ncn[nH]1,1.26
21,O=C1OCCC1Sc1nnc(-c2cccc(Br)c2)o1 (stereo not drawn),9.49
